Results reported in PubChem BioAssay AID504466 (National Center for Advancing Translational Sciences (NCATS), 2011).
Out of some 330,000 compounds screened, about 4,200 (1.3%) were called active. This list was built around the results that the source calls inconclusive (neither active nor inactive); the mix of calls is not that of the screen. Calls follow the shape of the dose curve; as a rule, active = well fitted activation curve with a large enough effect; inconclusive = small, poorly fitted or top-dose-only effect; inactive = no such curve, though single readings can be large or run the other way. Where the call is inconclusive, the potency comes from a doubtful curve fit.

Test: qHTS screen for small molecules that induce genotoxicity in human embryonic kidney (HEK293T) cells expressing luciferase-tagged ELG1; also: nearly all actives have a fitted effect of over 60% in size
Conditions: HEK293T ELG1-luciferase reporter, luminescence, 16 h; series mostly up to 46 µM
Procedure, shortened: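 After overnight (16 hr) compound treatment at 37 °C, ELG1-luciferase HEK293T cells were lysed with ONE-Glo; luminescence quantified 30 min later at room temperature.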
Potency is read from the fitted curve at half-maximal effect; tags tell the direction and shape of the fitted curve.

Question: For `Clc1ccc(Cn2ncc3c(NCc4ccco4)ncnc32)c(Cl)c1`, which Potency is on record?
Answer: Its Potency is “inactive”.

Question: Which Potency does the source give for `CC(=C/c1ccc(C(C)C)cc1)/C=N/NC(=O)c1ccncc1` here?
Answer: Its Potency is “inactive”.

Question: With `Cc1cccc(NC(=O)CN2C(=O)N/C(=C\c3ccc(N4CCOCC4)cc3)C2=O)c1` as the compound, how does the Potency read?
Answer: The Potency was inconclusive: 5.17 µM [activator, partial curve, poor fit].

Question: Which Potency does the source give for `Brc1cccc(Nc2nc(-c3cccnc3)cs2)c1` here?
Answer: Its Potency is inconclusive: 11.6 µM [activator, partial curve, poor fit].

Question: With `Cc1cc(Cl)ccc1OCC(=O)N1CCCCC1` as the compound, how does the Potency read?
Answer: Its Potency is active: 20.6 µM.

Question: For `COc1ccc(S(=O)(=O)N2CCOCC2)cc1NC(=O)c1cc(=O)[nH]c2ccccc12`, which Potency is on record?
Answer: The Potency was “inactive”.

Question: Which Potency does the source give for `CCOC(=O)N1CCC(NC(=O)c2ccc3c(c2)N(Cc2ccc(C)cc2)CCS3)CC1` here?
Answer: The Potency was “inactive”.

Question: For `COCCNC(=O)c1cc2sc3ccccc3c2s1`, which Potency is on record?
Answer: Its Potency is active: 14.6 µM.

Question: For `COc1cc2c3nnc(-c4ccc(F)cc4)c-3cn(Cc3ccccc3F)c2cc1OC`, which Potency is on record?
Answer: Its Potency is inconclusive: 23.1 µM [activator, single point].

Question: For `CCC(CC)NC(=O)c1ccc(NS(=O)(=O)c2ccc3[nH]c(=O)[nH]c3c2)cc1`, which Potency is on record?
Answer: Its Potency is inconclusive: 29.1 µM [activator, single point].

Question: For `Cn1c(=O)oc2cc(S(=O)(=O)NCCC(=O)Nc3ccc4c(c3)OCCO4)ccc21`, which Potency is on record?
Answer: The Potency was inconclusive: 29.1 µM [activator, partial curve, poor fit].

Question: For `O=C(c1cc(-c2ccccn2)nc2ccccc12)N1CCN(c2ncccn2)CC1`, which Potency is on record?
Answer: Its Potency is “inactive”.

Question: Which Potency does the source give for `O=[N+]([O-])c1ccccc1/C=N/OCc1ccccc1` here?
Answer: Its Potency is inconclusive: 5.17 µM [activator, partial curve, poor fit].

Question: With `Cc1cc(SCC(=O)N2CCN(C(=O)c3ccco3)CC2)c(C)cc1Br` as the compound, how does the Potency read?
Answer: Its Potency is “inactive”.

Question: Which Potency does the source give for `Nc1ccc(C(=O)OCc2nc3c(ccc4ccccc43)[nH]2)cc1` here?
Answer: Its Potency is inconclusive: 25.9 µM [activator, partial curve, poor fit].

Question: For `COC(=O)c1c(N)sc(C(=O)NCCc2ccccc2)c1C`, which Potency is on record?
Answer: Its Potency is active: 0.231 µM.

Question: With `CC(C)C(=O)Nc1nc(-c2ccccc2)ns1` as the compound, how does the Potency read?
Answer: The Potency was inconclusive: 9.2 µM [activator, partial curve].

Question: With `Cc1nnc(CN(C)C(=O)c2cc(COc3ccc(F)cc3Cl)on2)o1` as the compound, how does the Potency read?
Answer: The Potency was inconclusive: 8.2 µM [activator, single point].

Question: Which Potency does the source give for `CC(=O)c1ccc2c(c1)Nc1ccccc1S2` here?
Answer: Its Potency is inconclusive: 20.6 µM [activator, partial curve, poor fit].

Question: For `CNc1nnc(-c2ccc(N(C)C)cc2)s1`, which Potency is on record?
Answer: The Potency was inconclusive: 1.84 µM [activator, full curve].

Question: Which Potency does the source give for `CCCOc1ccc(C(=O)CCN2CCN(C(=O)OCC)CC2)cc1` here?
Answer: Its Potency is inconclusive: 18.3 µM [activator, single point].

Question: With `O=C(Nc1nnc(S(=O)(=O)N2CCN(c3ccc(F)cc3)CC2)s1)c1ccccc1` as the compound, how does the Potency read?
Answer: Its Potency is “inactive”.

Question: Which Potency does the source give for `Cn1c(SCc2ccc(F)cc2)nnc1-c1cccs1` here?
Answer: Its Potency is inconclusive: 18.4 µM [activator, partial curve].

Question: With `O=C1CCCC(O)=C1C1C2=C(CCCC2=O)Oc2ccccc21` (stereo not given) as the compound, how does the Potency read?
Answer: Its Potency is inconclusive: 25.9 µM [activator, partial curve, poor fit].

Question: For `Cc1ccc(S(=O)(=O)N/N=C\c2ccccc2OCc2ccccc2)cc1`, which Potency is on record?
Answer: The Potency was inconclusive: 29.1 µM [activator, partial curve, poor fit].

Question: Which Potency does the source give for `Cc1ccc(-c2nc(SCC(=O)N(C)c3c(N)n(Cc4ccccc4)c(=O)[nH]c3=O)n[nH]2)cc1` here?
Answer: The Potency was “inactive”.

Question: Which Potency does the source give for `O=C(COC(=O)c1cc2ccccc2oc1=O)Nc1cccc(S(=O)(=O)N2CCCCCC2)c1` here?
Answer: The Potency was inconclusive: 29.1 µM [activator, single point].

Question: With `COc1ccc(-c2cc3ccc(OCC(C)=O)cc3oc2=O)cc1OC` as the compound, how does the Potency read?
Answer: Its Potency is inconclusive: 11.6 µM [activator, partial curve].

Question: With `c1csc(-c2nc3ccccn3c2NC2CCCCC2)c1` as the compound, how does the Potency read?
Answer: The Potency was “inactive”.

Question: For `O=Cc1ccc(OCc2ccc3ccccc3c2)cc1`, which Potency is on record?
Answer: Its Potency is inconclusive: 29.1 µM [activator, single point].

Question: Which Potency does the source give for `O=c1[nH]c2ccccc2nc1-c1ccc(Cl)cc1` here?
Answer: The Potency was inconclusive: 9.2 µM [activator, partial curve, poor fit].

Question: For `Cc1ccc(S(=O)(=O)CCC(=O)OCc2nnc(-c3ccccc3Br)o2)cc1`, which Potency is on record?
Answer: Its Potency is “inactive”.

Question: For `O=C(O)c1ccccc1SCc1cn2cc(Br)ccc2n1`, which Potency is on record?
Answer: The Potency was inconclusive: 16.4 µM [activator, single point].

Question: Which Potency does the source give for `O=C(O)CCCNc1cc(N2CCC3(CC2)OCCO3)c2noc3c2c1C(=O)c1ccccc1-3` here?
Answer: Its Potency is inconclusive: 4.11 µM [activator, full curve, poor fit].

Question: For `O=C(CSc1ccc(-c2ccccn2)nn1)N1CCCc2ccccc21`, which Potency is on record?
Answer: The Potency was “inactive”.

Question: Which Potency does the source give for `CC(OC(=O)/C=C/c1ccco1)C(=O)NC1CCCCC1C` (stereo not given) here?
Answer: The Potency was “inactive”.

Question: For `COc1cccc(C(=O)Oc2ccc(/C=N/Nc3ccc(C(=O)O)cc3)cc2OC)c1`, which Potency is on record?
Answer: The Potency was inconclusive: 2.31 µM [activator, full curve].

Question: Which Potency does the source give for `O=C(c1ccccc1)c1nc2c(n1O)CCCCC2` here?
Answer: The Potency was inconclusive: 7.3 µM [activator, partial curve, poor fit].

Question: For `Cc1ccc(OCc2cc(C(=O)N3CCCC3)no2)cn1`, which Potency is on record?
Answer: Its Potency is inconclusive: 11.6 µM [activator, partial curve].

Question: Which Potency does the source give for `COc1ccc(-c2cnnc(N/N=C/c3ccc(O)cc3)n2)cc1` here?
Answer: Its Potency is inconclusive: 14.6 µM [activator, partial curve, poor fit].

Question: For `COc1ccc(-n2c(C)nn(CCOc3ccccc3)c2=O)cc1`, which Potency is on record?
Answer: Its Potency is inconclusive: 25.9 µM [activator, partial curve, poor fit].

Question: Which Potency does the source give for `O=[N+]([O-])c1ccccc1CSc1nc2ccccc2o1` here?
Answer: Its Potency is inconclusive: 18.4 µM [activator, single point].

Question: With `Cc1ccc(O)c(-n2nc3ccccc3n2)c1` as the compound, how does the Potency read?
Answer: The Potency was inconclusive: 6.51 µM [activator, partial curve].

Question: With `Cc1cn(CCC(=O)Nc2ccc(N3CCOCC3)cc2)c2ccccc12` as the compound, how does the Potency read?
Answer: Its Potency is inconclusive: 20.6 µM [activator, partial curve].

Question: With `Cc1cc(Cl)ccc1OCC(=O)N/N=C1\CCCc2ccccc21` as the compound, how does the Potency read?
Answer: The Potency was “inactive”.
